# This is one part of the list.
# T1: UNK ZnF1-3 (human, UniProt Q9C0B0 31-174)
# T1 sequence: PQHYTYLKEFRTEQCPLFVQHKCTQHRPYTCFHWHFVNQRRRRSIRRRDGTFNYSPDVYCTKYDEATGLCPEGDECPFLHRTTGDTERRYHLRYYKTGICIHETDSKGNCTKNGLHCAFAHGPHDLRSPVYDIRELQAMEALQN
# B1: chr9:45776876:45776877:-_ENSMUSG00000003131_ENSMUST00000172450|mus_hu|FALSE|FALSE (ssRNA)
# RNA: GGGAGUUCUACAGUCCGACGAUCGAUCAGUUCAUGCAGGGGUUUGCAGAUCUUUGCAUAGCCCCCUCCUGUCAGAUGCAGAAAAUCAAACAUGUCGUGGCAGGAGAUGGCACCGUCCGAGUGCACAAAACCCCCGUCGGUAUCCAACAGAGGAUUGAGCAUCA
# B2: chr6:40197388:40197389:+_ENSMUSG00000057716_ENSMUST00000061740|mus_mus|mus_mus_mus_hu_False|58_98 (ssRNA)
# RNA: GGGAGUUCUACAGUCCGACGAUCGAGACACUGGGGUGGAUGGCACCCACCUCUGUUUGGGUGCUAGCCACUAAGACAGCUAUUUUGGGAUUCAUGGCCUUGAAUAUCAAGAGGGAAAGGAAGAGGAUGGAAAGAGUCAAGAGUCAACAGAGGAUUGAGCAUCA
# B3: chr4:184614817:184614818:+_ENSG00000168538_ENST00000334690|hu_mus|FALSE|FALSE (ssRNA)
# RNA: GGGAGUUCUACAGUCCGACGAUCAGUGAGCUUCACAUCCCUGAUUGGGGACUUCUCGUGGGACUGAACAGUGACAACCAAACAGUACAUCUCAUUCAUUAGAGCAGGGGGCUCGUGUCGCAGGUGGACAGAGAUGUUUGGGACCAACAGAGGAUUGAGCAUCA
# B4: chr15:31385891:31385892:-_ENSMUSG00000039100_ENSMUST00000090227|mus_mus|FALSE|FALSE (ssRNA)
# RNA: GGGAGUUCUACAGUCCGACGAUCAUUCACUCCUAAACAGACACCCCUAGGCCUUAGUCACUCAUUUCCAUCUAAGGUUCUAUAGGAUUGUCAUGAUUACAAAAUGAGGCACUCAGACAGAUAGACAGGAAUGGAGACAUACAUCAACAGAGGAUUGAGCAUCA
# B5: chr7:151048522:151048523:+_ENSG00000013374_ENST00000566856|hu_hu|motif|central (ssRNA)
# RNA: GGGAGUUCUACAGUCCGACGAUCUUGCUUCUUAUUUAUGACAAUUUUGAUAUAAUUUUCUUGAAGUCCAAAGGUUUCAGCGGUUUUGGACCUCAGUUCUCUGCCAGUGAUGUGCAAUCGGGUCUCCAACAAGUUUUUCCUAUCCAACAGAGGAUUGAGCAUCA
# B6: 13527528_13541243_6213_CDS_ENSMUSG00000020576_ENSMUST00000042953|mouse|control|control (ssRNA)
# RNA: GGGAGUUCUACAGUCCGACGAUCUUCAGCACAGAAAGGCCGCAGCCACUGCAGCACGUCUUCAGCAGACACCAGCUCCUCCCCAUUGUCCACACUGGUGCGGACUGCCCCAACAACACCUUCUAGGACCUGGAGGGGGUCGCGCAACAGAGGAUUGAGCAUCA
# B7: chr16:45382771:45382772:-_ENSMUSG00000022661_ENSMUST00000163230|mus_mus|mus_mus_mus_hu_True|88_88 (ssRNA)
# RNA: GGGAGUUCUACAGUCCGACGAUCCUGGGUCAUGUUAUAAGACAAAUGGAUAGGGAGGGCAUGCUUCUCAAAAAAUGUGAGCUAUUGUCUAAGACUAACAAUAUUUAUCUAGCUAUAAAAAUAAGUUAAAUGAAUAAGUUAAGACAACAGAGGAUUGAGCAUCA
# B8: chr20:57485784:57485785:+_ENSG00000087460_ENST00000306090|hu_hu|FALSE|FALSE (ssRNA)
# RNA: GGGAGUUCUACAGUCCGACGAUCGUCACGGCAGUCGUUGAACACACGGCGGAUGUUCUCAGUGUCCACAGCGCAGGUGAAAUGAGGGUAGCAGUAGUGACGCCCAUCUCCACUGGCAGUGCUGAUCCUCAGAAACUCAUCUCGCAACAGAGGAUUGAGCAUCA
# B9: chr2:42509997:42509998:+_ENSG00000143924_ENST00000318522|hu_mus|hu_hu_hu_mus_True|1_78 (ssRNA)
# RNA: GGGAGUUCUACAGUCCGACGAUCUCGCUGAGUCCUCUCCUCAUAAUUAAACAGGACUACUACUGAUGCGAUAAAAUAAACUAUCUCCCCUGUGGGAAGCAGGUAUACAUUCGCUCUACAGUCCUUUCCUCGAUAACCAUAUGCCAACAGAGGAUUGAGCAUCA
# B10: chr4:103806524:103806525:+_ENSG00000145354_ENST00000273986|hu_hu|motif|central (ssRNA)
# RNA: GGGAGUUCUACAGUCCGACGAUCUUCAUUGUGUUUAUUAUGUGAACCAUCGCAGGCAGGAAACGUUUUAGAACGCCAACACCGGCAAUAAGCUGCUUUAGUAAGACACAAAUCUUCAAUGUUUAUUUCAUUCACUACUUUCGGCAACAGAGGAUUGAGCAUCA
# B11: chr4:106585523:106585524:+_ENSMUSG00000061887_ENSMUST00000030367|mus_mus|FALSE|FALSE (ssRNA)
# RNA: GGGAGUUCUACAGUCCGACGAUCAGGUCUGUGCAGAUUUCUGUGCUCCUACGUGCAGUAAAUAUUCGUAGACGUAUAAAGCUAACUUUUCCCGAGCCUGCCCGUCCGAGGGCACCGCCGAGCCUUUGCCUUUGGCAAACAUGGCAACAGAGGAUUGAGCAUCA
# B12: chr2:27656205:27656206:+_ENSG00000115216_ENST00000379852|hu_mus|motif|central (ssRNA)
# RNA: GGGAGUUCUACAGUCCGACGAUCACAGAAGUCAGGCCAGGAGCUAAAGAUGAGGAUUCUACCUUUGGGUCUGAGCCACUGCUGACGGCUGUUUGGGACUCCCCUUCCGACAUGCUGGAAUGAACACUCAGCCUCCCGACUCCGCAACAGAGGAUUGAGCAUCA
# B13: chr7:75932113:75932114:+_ENSG00000106211_ENST00000248553|hu_hu|hu_hu_hu_mus_False|88_98 (ssRNA)
# RNA: GGGAGUUCUACAGUCCGACGAUCCUGCGACCACUCAUCCGGCAGCCGGGGCAGCCCGAAAGCUUGAUCGAAGAGGCGGCUGUGUGCAGGGUACCAGUCCCGGAAUGGUUCCCAGCUCGGGCUCCGCAGCAGCGAGAAGGGCACCAACAGAGGAUUGAGCAUCA
# B14: chr1:58468927:58468928:-_ENSMUSG00000026034_ENSMUST00000148330|mus_mus|mus_mus_mus_hu_False|28_38 (ssRNA)
# RNA: GGGAGUUCUACAGUCCGACGAUCAAUUACUGAAAAAGAUGUUCAUUACCUUAGCUAUGUACUUAAUGAACCAAAUUACCCAAACAAAAUAAACAUGUUUACAAAUUAAGCUAUACAAUUUACAAAGCUGUACAAAAUAACUUACAACAGAGGAUUGAGCAUCA
# B15: 33255743_33255984_918_CDS_ENSG00000227057_ENST00000374617|human|control|control (ssRNA)
# RNA: GGGAGUUCUACAGUCCGACGAUCUCCAGUUCGAGAGUAGUUUAGUCUGUAGGGUCCAAACUGCCGCAGAUUCAAGUCAAAGUGCUUGGCUGCACUUGCAAUGUCCACAGCCUCCACAAUGUCAGCCUGGCAUAUCUUUGCUGUCAACAGAGGAUUGAGCAUCA
# B16: chr5:110834802:110834803:-_ENSG00000164211_ENST00000296632|hu_hu|motif|central (ssRNA)
# RNA: GGGAGUUCUACAGUCCGACGAUCUUACCCAUAUUAACAACAACAAAACAGUAGACACAGGAAUACUAACACAUAAACAACGGACAUUAAACACGGAAAUGGAUUUCGAGAUGUGUGCAUGUACACAAAAAAAUAUAUACAAAGCAACAGAGGAUUGAGCAUCA
# B17: chr1:21151686:21151687:-_ENSG00000075151_ENST00000400422|hu_hu|FALSE|FALSE (ssRNA)
# RNA: GGGAGUUCUACAGUCCGACGAUCUAAAAAGUCCUUCCAGCUGAGGUCAGCCUCCCUCCAUAAGGCUCCCACUUUCUUAUGGCUCAUUUGUUUGCAUAGUAGGUGCAAUAUUUCAGAUAGCAAGACCCCAGCUCUUCCAACAGGCAACAGAGGAUUGAGCAUCA
# B18: chr15:68825492:68825493:+_ENSMUSG00000022332_ENSMUST00000022954|mus_hu|motif|central (ssRNA)
# RNA: GGGAGUUCUACAGUCCGACGAUCAAUCACCACAUCGAUGUACUUUUCUUCAUCCUUGCCUUCUCCUUUUUGAAACUUUUCGGUUUCUUGGUUCACCAGGCGCAGGGCGUGCGUGAAGGAGGGGUCCAGGGAGUCCUUCUCCGCCAACAGAGGAUUGAGCAUCA
# B19: chr19:42637464:42637465:+_ENSMUSG00000025184_ENSMUST00000026188|mus_mus|motif|central (ssRNA)
# RNA: GGGAGUUCUACAGUCCGACGAUCAGUCUGAACUUCCCAACAGUCCAUGUCCUUUGGUUUAAAAAGUCUUUGUAAAGGUAUACGGGAUACAAUCCCAGCGUCGGGAGCUCUGUGUUGAUGUUCUUGGGAUGAGGCUUCUGUGGACAACAGAGGAUUGAGCAUCA
# B20: chr16:94690093:94690094:+_ENSMUSG00000040785_ENSMUST00000117648|mus_hu|mus_mus_mus_hu_True|18_58 (ssRNA)
# RNA: GGGAGUUCUACAGUCCGACGAUCGGGCUGGGAUGACGGACACACAGCCUCGAUUCCAGGGGGAAAAAGUCUUAGUCAAUACUAAUUAAAAAGUGUUAAUGAUUUUUGAAAAUCAGAUGUAGAUUAAAAAAGAUGAAAAGCAAACAACAGAGGAUUGAGCAUCA
# B21: chr14:103803487:103803488:+_ENSG00000100664_ENST00000558506|hu_mus|hu_hu_hu_mus_True|8_8 (ssRNA)
# RNA: GGGAGUUCUACAGUCCGACGAUCGAGUUUAUGAUGUGUGUCAAGCAUGCCUCGGUACCCACAGGCUUUACAAGAAUUACCUAUUGUUUGCUUCUUUGGAUUGACAUGCAGAUCUGUUUCAGGAUUCUCACAUUCAGGACAGAGCAACAGAGGAUUGAGCAUCA
# B22: 174000111_174000231_1397_CDS_ENSMUSG00000003458_ENSMUST00000003550|mouse|control|control (ssRNA)
# RNA: GGGAGUUCUACAGUCCGACGAUCGUGGAAGGAGCCAGAGUGGUCAGCCAGGACCACGCCAGAGAUGUUUCGAGCCCGAAGAAAUCGUUGUAGAGACGAAGGUGGAAGGGCCUGGGACUGGGCCAGUCUCCUCAGGACAACUUCCAACAGAGGAUUGAGCAUCA
# Biological target: T1, UNK ZnF1-3
# Test: nsRBNS (natural sequence RNA bind-n-seq); RBNS binding buffer (assumed for nsRBNS): 25 mM Tris pH 7.5, 150 mM KCl, 3 mM MgCl2, 0.01% Triton X-100, 500 ug/ml BSA, 20 U/ml SUPERase-In, 4 C; UNK is unkempt and MSI1 is Musashi-1; names of the RNAs are library labels; protein concentration not given here; high values mean tight binding
row,Binder,binding signal
1,B1,0.363 enrichment R
2,B2,1.55 enrichment R
3,B3,1.78 enrichment R
4,B4,1.14 enrichment R
5,B5,0.775 enrichment R
6,B6,0.899 enrichment R
7,B7,2.21 enrichment R
8,B8,0.927 enrichment R
9,B9,0.851 enrichment R
10,B10,0.931 enrichment R
11,B11,0.723 enrichment R
12,B12,1.32 enrichment R
13,B13,1.35 enrichment R
14,B14,0.561 enrichment R
15,B15,0.835 enrichment R
16,B16,1.63 enrichment R
17,B17,0.474 enrichment R
18,B18,0.743 enrichment R
19,B19,1.05 enrichment R
20,B20,2.38 enrichment R
21,B21,1.44 enrichment R
22,B22,1.35 enrichment R

# Source: PMC12136788
